40 molecules from PubChem BioAssay AID1645887 (National Center for Advancing Translational Sciences (NCATS), 2021) can be followed below.

Structures are written as SMILES. Where “and” joins values, the source holds several entries; their conditions need not be identical. Equal entries are not always repeated. Out of some 16,000 compounds screened, about 40 (0.2%) were called active. Another 1% or so got no clear call; they are omitted. The call rests on the fitted dose curve; in most records, active means well fitted activation curve with a large enough effect; inconclusive means small, poorly fitted or top-dose-only effect, or another doubt; inactive means no such curve, though single readings can be large or run the other way. The list shows a part of the results.
On the % scale 0 is the no-effect control and ±100 the full control effect; potency means the concentration at half of the fitted maximal effect.

Sequence of UniProt Q8WZA2 (Q8WZA2 whole entry, looked up): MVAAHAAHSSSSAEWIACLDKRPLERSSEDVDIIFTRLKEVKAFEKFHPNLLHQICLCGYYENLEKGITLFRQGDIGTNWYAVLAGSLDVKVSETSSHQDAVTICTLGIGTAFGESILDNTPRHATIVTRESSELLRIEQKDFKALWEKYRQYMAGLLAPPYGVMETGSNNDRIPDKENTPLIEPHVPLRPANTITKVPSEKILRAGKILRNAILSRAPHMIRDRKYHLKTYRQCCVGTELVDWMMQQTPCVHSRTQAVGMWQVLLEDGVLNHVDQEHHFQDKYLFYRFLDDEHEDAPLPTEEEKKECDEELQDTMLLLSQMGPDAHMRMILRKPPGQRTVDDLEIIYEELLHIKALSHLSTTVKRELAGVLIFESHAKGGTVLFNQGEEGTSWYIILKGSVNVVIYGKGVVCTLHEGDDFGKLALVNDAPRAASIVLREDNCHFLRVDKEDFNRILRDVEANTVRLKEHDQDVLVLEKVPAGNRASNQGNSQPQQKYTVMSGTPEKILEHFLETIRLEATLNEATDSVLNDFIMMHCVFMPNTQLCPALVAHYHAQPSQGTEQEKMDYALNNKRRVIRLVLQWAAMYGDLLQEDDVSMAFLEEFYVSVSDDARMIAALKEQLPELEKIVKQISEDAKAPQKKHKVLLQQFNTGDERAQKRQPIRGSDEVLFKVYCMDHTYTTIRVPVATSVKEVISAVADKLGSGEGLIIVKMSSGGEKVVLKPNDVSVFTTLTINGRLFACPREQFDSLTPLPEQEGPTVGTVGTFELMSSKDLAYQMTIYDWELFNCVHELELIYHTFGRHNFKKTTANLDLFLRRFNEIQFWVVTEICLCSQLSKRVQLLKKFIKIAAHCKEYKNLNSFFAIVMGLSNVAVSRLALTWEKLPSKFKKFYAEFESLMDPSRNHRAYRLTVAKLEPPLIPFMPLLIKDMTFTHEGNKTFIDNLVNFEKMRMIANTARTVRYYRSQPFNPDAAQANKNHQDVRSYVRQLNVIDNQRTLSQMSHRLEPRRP

The assay has as its target Rap guanine nucleotide exchange factor 4 (Homo sapiens) (UniProt Q8WZA2). Briefly: Validation qHTS for agonist of cAMP-regulated guanine nucleotide exchange factor 4 (EPAC2).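 On activation: exchange makes BODIPY-GDP fluorescence drop when released from Rap1B; series mostly up to about 150 µM.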 The conditions noted are these: EPAC2 Rap1B BODIPY-GDP exchange, fluorescence; activation: stronger effect = higher value. The source says:
Principle Investigator: Xiaodong Cheng Ph.D.
The University of Texas Medical Branch, […], TX
In multi-cellular eukaryotic organisms, the effects of cAMP are transduced by two ubiquitously-expressed intracellular cAMP receptors, the classic protein kinase A/cAMP-dependent protein kinase (PKA/cAPK) and the more recently discovered exchange protein directly activated by cAMP/cAMP-regulated guanine nucleotide exchange factor (EPAC/cAMP-GEF). Both PKA and EPAC are ubiquitously expressed in all tissues, and an increase in intracellular cAMP levels will lead to the activation of both PKA and EPAC. Therefore, careful dissections of the individual role and relative contribution of EPAC and PKA within the overall cAMP signaling in various model systems are critical for further elucidating the mechanism of cAMP signaling. To date no EPAC-specific antagonists and agonist, as well as isoform-specific agonists have been reported, and developing EPAC-specific pharmacological probes to determine the physiological functions that EPAC play in the overall cAMP-mediated signaling remains a major challenge within the research field. Furthermore, identified regulators of EPAC may lead to new mechanism-based therapeutic strategies specifically targeting the EPAC / cAMP-signaling components as EPAC has been implicated to play important roles in major human pathological conditions such as diabetes, heart disease, and cancer.
This qHTS will be used to screen the Molecular Libraries Small Molecule Repository (MLSMR) as a concentration-titration series using the NCGC unique quantitative screening (qHTS) platform to find activators for EPAC1. In addition, this assay will also be used as a counterscreen for the EPAC2 qHTS. This fluorescent based assay is developed and validated for EPAC1 that measures exchange using EPAC effector Rap1 complex with BODIPY-GDP, a GDP analog with a tethered fluorophores. Activators are identified by monitoring the change in fluorescence signal as the exchanged free BODIPY-GDP has a reduced fluorescence compared to Rap1-bound BODIPY-GDP. Increase in signal (activation) is the desired outcome for the EPAC1 agonist while no activity in this assay is desired for the EPAC2 agonist counterscreen.
[1] de Rooij, J., Zwartkruis, F. J., Verheijen, M. H., Cool, R. H., Nijman, S. M., Wittinghofer, A., and Bos, J.L. (1998) Nature 396, 474-477.
Briefly, three uL of reagents (100 nM EPAC2, 250 nM RAP1B-BODIPY-GDP, 50 uM GDP) were dispensed into a 1536-well Greiner black solid-bottom medium binding assay plate. Controls and test compounds (23 nL) were transferred to the plate via a Kalypsys pin tool equipped with a 1536-pin array. The plates were centrifuged at 1,000 rpm for 15 seconds followed by 5 minute incubation at room temperature. The assay plates were read at 5 minute intervals for 30 minutes in the ViewLux plate reader using 480nm excitation and 540nm emission filters. The results were normalized to the agonist positive control of 6.5 mM cAMP.
Take `CCOC(=O)c1ccccc1C(=O)OCC`: the activation is inactive: 5.39%. The same measure, in the same setting: for `NC(N)=NOCC[C@H](N)C(=O)O` the value was inactive: -12% and inactive: -71.7%; for `O=C(Nc1ccccc1)N1CCC2(CC1)CCN(C(=O)Oc1ccccc1)CC2`, inactive: -16.9%; for `N[C@@H](Cn1oc(=O)[nH]c1=O)C(=O)O`, inactive: -11.8% and inactive: 3.16% and inactive: 10.2%. Still for that read-out and setting: for `CC(Cc1ccc2c(c1)OCO2)NO` (stereo not given) the value was inactive: -17.6%; for `Clc1cnc(Oc2ccc(Oc3ncc(Cl)cc3Cl)cc2)c(Cl)c1`, inactive: -2.13% and inactive: 4.09%; for `[O]=[Cd]`, inactive: -0.16%. With `CCCN(CCC)[C@@H]1CCc2ccc(O)cc2C1`, the activation was inactive: -20.6% and inactive: -9.27%. Turning to `COc1c2c(c(CC=C(C)C)c3oc(=O)c(-c4ccc(O)cc4)c(O)c13)OC(C)(C)C=C2`, the activation was inactive: -10.5%. Still for that read-out and setting: for `OC[C@H]1O[C@@H](n2cnc3cc(Cl)c(Cl)cc32)[C@H](O)[C@H]1O` the value was inactive: -2.99%; for `CNCCc1ccc(O)c(O)c1`, inactive: 4.21% and inactive: -18.2%. The same measure, in the same setting: for `O=C1C=CC(=O)c2c(O)cccc21` the value was inactive: -19.1%. On to `CN(C(=O)Cc1ccc(Cl)c(Cl)c1)[C@H](CN1CCCC1)c1ccccc1`, for which the activation is inactive: -17.2% and inactive: 6.79%. As for `CNNC`, the activation is inactive: -8.09%.

In the case of `NCC(=O)c1ccc(Cl)c(Cl)c1`, the activation is inactive: -24.1%.

`CCN1C[C@]2(COC(=O)c3ccccc3N3C(=O)C[C@H](C)C3=O)CC[C@H](OC)[C@@]34[C@@H]5C[C@H]6[C@H](OC)[C@H]5[C@](O)(C[C@@H]6OC)[C@@](O)([C@@H](OC)[C@@H]23)[C@@H]14`: the activation was inactive: -1.94%. Consider `CC1OC(=O)C(C(C)C)NC(=O)C(C(C)C)OC(=O)C(C(C)C)NC(=O)C(C)OC(=O)C(C(C)C)NC(=O)C(C(C)C)OC(=O)C(C(C)C)NC(=O)C(C)OC(=O)C(C(C)C)NC(=O)C(C(C)C)OC(=O)C(C(C)C)NC1=O` (stereo not given), for which the activation is inactive: -16.2% and inactive: -7.35%. On the same count and under the same terms, for `COC1C(O)C(C)O[C@@H](OC2CC[C@@]3(C)C4CC[C@]5(C)C(C6=CC(=O)OC6)CC[C@@]5(O)C4CC[C@@H]3C2)C1O` (stereo not given in full) the value was inactive: -12.2%. Same read-out and setting: for `ClCC1CO1` (stereo not given) the value was inactive: -0.588%; for `CCC(C)C(=O)c1c(O)c(C)c2oc3c(C)c(O)c(C(=O)C(C)CC)c(O)c3c2c1O` (stereo not given), inactive: -24.1%; for `C/C=C1/C[N@@+]2(C)CC[C@]34C(=C(C=O)[C@H]1C[C@H]32)Nc1ccccc14`, inactive: 0.511%.

As for `CCCC(C)(COC(N)=O)COC(N)=O`, the activation is inactive: -15.5%.

On to `CC1=NCCc2c1[nH]c1cc(O)ccc21`, for which the Potency was active: 100 µM. As to `COC(=O)N1CCC2(CCN(CC(C)C)CC2)CC1`, the activation is inactive: -7.07%.

Regarding `CN(N=O)c1ccc(O)c(O)c1`, the activation is inactive: -14%.

In the case of `CCN1C[C@]2(C)CC[C@H](O)[C@@]34C5C[C@@H]6[C@@H](OC)C[C@@](O)(C5[C@H]6O)[C@@H](CC23)[C@@H]14` (stereo not given in full), the activation was inactive: -3.45% and inactive: 0.708%. As to `CCOP(=S)(OCC)SCSc1ccc(Cl)cc1`, the activation is inactive: -18.2%. With `CC[C@H](O)C(C[C@H](C)N(C)C)(c1ccccc1)c1ccccc1`, the activation is inactive: -7.14%.

Consider `CCOC(=O)[C@]12Cc3cc(Cl)ccc3[C@H]1N(Cc1ccccc1)C(=O)c1ccccc12`, for which the activation is inactive: 2.28%. Regarding `c1cc2c(cc1[C@H]1OC[C@@H]3[C@H]1CO[C@H]3c1ccc3c(c1)OCO3)OCO2`, the activation is inactive: 6.93%. Still for that read-out and setting: as for `CSc1nc(NC(C)C)nc(NC(C)C)n1`, the figure is inactive: -1.99%. Take `CCN1C[C@]2(COC)C(O)C[C@H](OC)[C@@]34C5C[C@]6(O)C(OC)C(O)[C@](OC(C)=O)(C5C6OC(=O)c5ccccc5)C(C(OC)C23)C14` (stereo not given in full): the activation was inactive: -6.95%.

For the molecule `CCN[C@@H](C)Cc1ccccc1`, the activation is inactive: 1.25%. In the case of `CCCN1CCC[C@@H]2Cc3nc(N)ncc3C[C@H]21`, the activation was inactive: 1.26% and inactive: -32.9%. With `COc1cc(CC(C)N)cc2c1OCO2` (stereo not given), the activation was inactive: 0.0606%. On the same count and under the same terms, for `OCC1CCCN2CCCCC12` (stereo not given) the value was inactive: -6.01%; for `CC1(C)[C@@H](O)C[C@H]2[C@](C)(O)[C@@H]3CC[C@H]4[C@@H](O)[C@@]3(C[C@@H](O)[C@@]21O)C[C@@]4(C)O`, inactive: 3.34% and inactive: 0.783%; for `C=CC[C@]1(O)CC[C@H]2[C@@H]3CCC4=CC(=O)CCC4=C3C=C[C@@]21C`, inactive: -5.32%. On the same count and under the same terms, as for `C[C@@H]1O[C@H](C[N+](C)(C)C)C[C@@H]1O`, the figure is inactive: 6.7%. In the case of `CS(=O)(=O)c1ccc(C(=O)C2C(=O)CCCC2=O)c([N+](=O)[O-])c1`, the activation is inactive: -28.9%.
